Results from article PMC12820563.
The other results are listed elsewhere or left out. The list includes weakly bound sequences.

Target: T1, MBP-FoxP3dN (UniProt Q99JB6)
T1 sequence: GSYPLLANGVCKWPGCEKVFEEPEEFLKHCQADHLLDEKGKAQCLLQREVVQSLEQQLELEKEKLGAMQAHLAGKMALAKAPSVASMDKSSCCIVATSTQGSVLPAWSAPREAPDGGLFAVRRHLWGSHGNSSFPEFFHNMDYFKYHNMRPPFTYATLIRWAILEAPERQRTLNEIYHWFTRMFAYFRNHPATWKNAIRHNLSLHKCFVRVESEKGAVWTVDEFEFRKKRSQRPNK
Test: PD-seq (MBP pull-down with sequencing)
Conditions: 20 mM Tris-HCl pH 7.5, 100 mM NaCl, 1.5 mM MgCl2, 0.4 uM protein, 0.1 uM dsDNA library, 30 min, room temperature, amylose pull-down; high values mean tight binding; double strand, one strand shown

| Sequence | binding signal (RPM ratio (pull-down/input)) |
| --- | --- |
| GATGATTGTTCTCCCAGCTGATGAATTGTTGGGGTCGAGTAAACAAATTTTCCTAATCTTTCTGTTCAAGCGCCATCTAC | 1.79 |
| GATGATTGTTCTCCCAGCTGATGAATTGTTTTATTCGAGTAAACAAATTTTCCTAATCTTTCTGTTCAAGCGCCATCTAC | 1.66 |
| GATGATTGTTCTCCCAGCTGATGAATTACGTAATTCGAGTAAACAAATTTTCCTAATCTTTCTGTTCAAGCGCCATCTAC | 0.952 |
| GATGATTGTTCTCCCAGCTGATGAATTTCCCGAGTCGAGTAAACAAATTTTCCTAATCTTTCTGTTCAAGCGCCATCTAC | 0.171 |
| GATGATTGTTCTCCCAGCTGATGAATTATGATCATCGAGTAAACAAATTTTCCTAATCTTTCTGTTCAAGCGCCATCTAC | 0.762 |
| GATGATTGTTCTCCCAGCTGATGAATTATCCAGTTCGAGTAAACAAATTTTCCTAATCTTTCTGTTCAAGCGCCATCTAC | 0.235 |
| GATGATTGTTCTCCCAGCTGATGAATTCTTCTGGTCGAGTAAACAAATTTTCCTAATCTTTCTGTTCAAGCGCCATCTAC | 0.192 |
| GATGATTGTTCTCCCAGCTGATGAATTAGCAGAATCGAGTAAACAAATTTTCCTAATCTTTCTGTTCAAGCGCCATCTAC | 0.204 |
| GATGATTGTTCTCCCAGCTGATGAATTGTATGGCTCGAGTAAACAAATTTTCCTAATCTTTCTGTTCAAGCGCCATCTAC | 1.21 |
| GATGATTGTTCTCCCAGCTGATGAATTCATACAATCGAGTAAACAAATTTTCCTAATCTTTCTGTTCAAGCGCCATCTAC | 0.579 |
| GATGATTGTTCTCCCAGCTGATGAATTCCGGGAATCGAGTAAACAAATTTTCCTAATCTTTCTGTTCAAGCGCCATCTAC | 0.196 |
| GATGATTGTTCTCCCAGCTGATGAATTGCCCTGCTCGAGTAAACAAATTTTCCTAATCTTTCTGTTCAAGCGCCATCTAC | 0.383 |
| GATGATTGTTCTCCCAGCTGATGAATTCGTCGCGTCGAGTAAACAAATTTTCCTAATCTTTCTGTTCAAGCGCCATCTAC | 0.76 |
| GATGATTGTTCTCCCAGCTGATGAATTATCACCTTCGAGTAAACAAATTTTCCTAATCTTTCTGTTCAAGCGCCATCTAC | 0.388 |
| GATGATTGTTCTCCCAGCTGATGAATTCTTTACATCGAGTAAACAAATTTTCCTAATCTTTCTGTTCAAGCGCCATCTAC | 0.43 |
| GATGATTGTTCTCCCAGCTGATGAATTACCCTATTCGAGTAAACAAATTTTCCTAATCTTTCTGTTCAAGCGCCATCTAC | 0.353 |
| GATGATTGTTCTCCCAGCTGATGAATTCCCCTGCTCGAGTAAACAAATTTTCCTAATCTTTCTGTTCAAGCGCCATCTAC | 0.212 |
| GATGATTGTTCTCCCAGCTGATGAATTGATTTCGTCGAGTAAACAAATTTTCCTAATCTTTCTGTTCAAGCGCCATCTAC | 0.847 |
| GATGATTGTTCTCCCAGCTGATGAATTAGATTCGTCGAGTAAACAAATTTTCCTAATCTTTCTGTTCAAGCGCCATCTAC | 0.671 |
| GATGATTGTTCTCCCAGCTGATGAATTAATATAATCGAGTAAACAAATTTTCCTAATCTTTCTGTTCAAGCGCCATCTAC | 0.438 |
| GATGATTGTTCTCCCAGCTGATGAATTGACACTCTCGAGTAAACAAATTTTCCTAATCTTTCTGTTCAAGCGCCATCTAC | 0.6 |

| Sequence | binding signal (RPM ratio (pull-down/input)) |
| --- | --- |
| GATGATTGTTCTCCCAGCTGATGAATTTGCGGGCTCGAGTAAACAAATTTTCCTAATCTTTCTGTTCAAGCGCCATCTAC | 0.703 |
| GATGATTGTTCTCCCAGCTGATGAATTGGCATGTTCGAGTAAACAAATTTTCCTAATCTTTCTGTTCAAGCGCCATCTAC | 1.37 |
| GATGATTGTTCTCCCAGCTGATGAATTATTGTCGTCGAGTAAACAAATTTTCCTAATCTTTCTGTTCAAGCGCCATCTAC | 1.32 |
| GATGATTGTTCTCCCAGCTGATGAATTTGTTCAATCGAGTAAACAAATTTTCCTAATCTTTCTGTTCAAGCGCCATCTAC | 0.584 |
| GATGATTGTTCTCCCAGCTGATGAATTACCCCTATCGAGTAAACAAATTTTCCTAATCTTTCTGTTCAAGCGCCATCTAC | 0.321 |
| GATGATTGTTCTCCCAGCTGATGAATTGTAACCTTCGAGTAAACAAATTTTCCTAATCTTTCTGTTCAAGCGCCATCTAC | 0.604 |
| GATGATTGTTCTCCCAGCTGATGAATTTTACGTATCGAGTAAACAAATTTTCCTAATCTTTCTGTTCAAGCGCCATCTAC | 0.57 |
| GATGATTGTTCTCCCAGCTGATGAATTTTTCATATCGAGTAAACAAATTTTCCTAATCTTTCTGTTCAAGCGCCATCTAC | 0.307 |
| GATGATTGTTCTCCCAGCTGATGAATTTGTTTATTCGAGTAAACAAATTTTCCTAATCTTTCTGTTCAAGCGCCATCTAC | 7.73 |
| GATGATTGTTCTCCCAGCTGATGAATTTACGGCCTCGAGTAAACAAATTTTCCTAATCTTTCTGTTCAAGCGCCATCTAC | 0.586 |
| GATGATTGTTCTCCCAGCTGATGAATTACTTCACTCGAGTAAACAAATTTTCCTAATCTTTCTGTTCAAGCGCCATCTAC | 0.319 |
| GATGATTGTTCTCCCAGCTGATGAATTTAAGTCCTCGAGTAAACAAATTTTCCTAATCTTTCTGTTCAAGCGCCATCTAC | 0.424 |
| GATGATTGTTCTCCCAGCTGATGAATTTATCCCCTCGAGTAAACAAATTTTCCTAATCTTTCTGTTCAAGCGCCATCTAC | 0.817 |
| GATGATTGTTCTCCCAGCTGATGAATTTTAACGATCGAGTAAACAAATTTTCCTAATCTTTCTGTTCAAGCGCCATCTAC | 0.302 |
| GATGATTGTTCTCCCAGCTGATGAATTTGCGGGGTCGAGTAAACAAATTTTCCTAATCTTTCTGTTCAAGCGCCATCTAC | 1.36 |
| GATGATTGTTCTCCCAGCTGATGAATTCGAATGCTCGAGTAAACAAATTTTCCTAATCTTTCTGTTCAAGCGCCATCTAC | 0.945 |
| GATGATTGTTCTCCCAGCTGATGAATTCTCGTACTCGAGTAAACAAATTTTCCTAATCTTTCTGTTCAAGCGCCATCTAC | 0.341 |
| GATGATTGTTCTCCCAGCTGATGAATTTGAGCAGTCGAGTAAACAAATTTTCCTAATCTTTCTGTTCAAGCGCCATCTAC | 0.341 |
| GATGATTGTTCTCCCAGCTGATGAATTGTAACTTTCGAGTAAACAAATTTTCCTAATCTTTCTGTTCAAGCGCCATCTAC | 0.724 |
| GATGATTGTTCTCCCAGCTGATGAATTCACCCGGTCGAGTAAACAAATTTTCCTAATCTTTCTGTTCAAGCGCCATCTAC | 0.193 |
| GATGATTGTTCTCCCAGCTGATGAATTTAGTTAGTCGAGTAAACAAATTTTCCTAATCTTTCTGTTCAAGCGCCATCTAC | 2.54 |

| Sequence | binding signal (RPM ratio (pull-down/input)) |
| --- | --- |
| GATGATTGTTCTCCCAGCTGATGAATTATCCTGGTCGAGTAAACAAATTTTCCTAATCTTTCTGTTCAAGCGCCATCTAC | 0.181 |
| GATGATTGTTCTCCCAGCTGATGAATTGTCATGGTCGAGTAAACAAATTTTCCTAATCTTTCTGTTCAAGCGCCATCTAC | 0.55 |
| GATGATTGTTCTCCCAGCTGATGAATTAAGATGGTCGAGTAAACAAATTTTCCTAATCTTTCTGTTCAAGCGCCATCTAC | 0.453 |
| GATGATTGTTCTCCCAGCTGATGAATTGGTGCAGTCGAGTAAACAAATTTTCCTAATCTTTCTGTTCAAGCGCCATCTAC | 0.786 |
| GATGATTGTTCTCCCAGCTGATGAATTTCGCGTCTCGAGTAAACAAATTTTCCTAATCTTTCTGTTCAAGCGCCATCTAC | 4.04 |
| GATGATTGTTCTCCCAGCTGATGAATTGCTGTCGTCGAGTAAACAAATTTTCCTAATCTTTCTGTTCAAGCGCCATCTAC | 0.942 |
| GATGATTGTTCTCCCAGCTGATGAATTGCAACGTTCGAGTAAACAAATTTTCCTAATCTTTCTGTTCAAGCGCCATCTAC | 1.66 |
| GATGATTGTTCTCCCAGCTGATGAATTATGTCACTCGAGTAAACAAATTTTCCTAATCTTTCTGTTCAAGCGCCATCTAC | 4.21 |
| GATGATTGTTCTCCCAGCTGATGAATTAGCCCCCTCGAGTAAACAAATTTTCCTAATCTTTCTGTTCAAGCGCCATCTAC | 0.322 |
| GATGATTGTTCTCCCAGCTGATGAATTGCGCAGCTCGAGTAAACAAATTTTCCTAATCTTTCTGTTCAAGCGCCATCTAC | 2.42 |
| GATGATTGTTCTCCCAGCTGATGAATTCTAGGGTTCGAGTAAACAAATTTTCCTAATCTTTCTGTTCAAGCGCCATCTAC | 0.387 |
| GATGATTGTTCTCCCAGCTGATGAATTGGGGTCTTCGAGTAAACAAATTTTCCTAATCTTTCTGTTCAAGCGCCATCTAC | 0.528 |
| GATGATTGTTCTCCCAGCTGATGAATTGCAACCTTCGAGTAAACAAATTTTCCTAATCTTTCTGTTCAAGCGCCATCTAC | 2.51 |
| GATGATTGTTCTCCCAGCTGATGAATTTGTGTAGTCGAGTAAACAAATTTTCCTAATCTTTCTGTTCAAGCGCCATCTAC | 6.14 |
| GATGATTGTTCTCCCAGCTGATGAATTCAGTCTGTCGAGTAAACAAATTTTCCTAATCTTTCTGTTCAAGCGCCATCTAC | 0.407 |
| GATGATTGTTCTCCCAGCTGATGAATTTATTGCCTCGAGTAAACAAATTTTCCTAATCTTTCTGTTCAAGCGCCATCTAC | 5.03 |
| GATGATTGTTCTCCCAGCTGATGAATTACACCTTTCGAGTAAACAAATTTTCCTAATCTTTCTGTTCAAGCGCCATCTAC | 0.64 |
| GATGATTGTTCTCCCAGCTGATGAATTGTAGAGGTCGAGTAAACAAATTTTCCTAATCTTTCTGTTCAAGCGCCATCTAC | 0.339 |
| GATGATTGTTCTCCCAGCTGATGAATTCCGGCGGTCGAGTAAACAAATTTTCCTAATCTTTCTGTTCAAGCGCCATCTAC | 0.238 |
| GATGATTGTTCTCCCAGCTGATGAATTAGCCCCTTCGAGTAAACAAATTTTCCTAATCTTTCTGTTCAAGCGCCATCTAC | 0.349 |
| GATGATTGTTCTCCCAGCTGATGAATTATCAAGCTCGAGTAAACAAATTTTCCTAATCTTTCTGTTCAAGCGCCATCTAC | 0.285 |
